From PubChem BioAssay AID2100 (National Center for Advancing Translational Sciences (NCATS), 2009)
Out of some 300,000 compounds screened, about 1,200 (0.4%) were called active. This list was built around the results that the source calls inconclusive (neither active nor inactive); the mix of calls is not that of the screen. Calls follow the shape of the dose curve; as a rule, active = well fitted inhibition curve with a large enough effect; inconclusive = small, poorly fitted or top-dose-only effect, or another doubt; inactive = no such curve, though single readings can be large or run the other way. Potencies of inconclusive entries are doubtful fits and often do not repeat.

These compounds were tested against Lysosomal alpha-glucosidase (Homo sapiens) (UniProt P10253) (assay: qHTS Assay for Inhibitors and Activators of Human alpha-Glucosidase Cleavage of Glycogen). Conditions: recombinant GAA, glycogen substrate, Amplex Red glucose oxidase fluorescence; series mostly up to 76.4 µM.
Outline: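 Recombinant enzyme (4 nM final) with compounds titrated up to 77 uM and bovine liver glycogen (30 ug) in citrate pH 5.0, 0.01% Tween-20, 37 C 40 min. Released glucose detected by Amplex Red/glucose oxidase (Ex 573/Em 610); AC50 from Hill fits.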
Potency is read from the fitted curve at half-maximal effect.

SMILES	Potency
O=C(NCc1ccc(F)cc1)N1CCN(S(=O)(=O)c2ccccc2F)CC1	inactive
Cc1cc2n(n1)SC(Nc1cc(Cl)ccc1Cl)N2 (centres undefined)	inconclusive: 50.1 µM [inhibitor, single point]
COc1ccc(Cn2nnnc2C(c2cccnc2)N2CCN(c3ccc(O)cc3)CC2)cc1 (centres undefined)	inconclusive: 39.5 µM [inhibitor, partial curve, poor fit]
CC1CCN(S(=O)(=O)c2ccc3ncn(CC(=O)Nc4ccccc4C(F)(F)F)c(=O)c3c2)CC1	inactive
N#Cc1ccc(C(=O)CSc2n[nH]c(=O)n2-c2cccnc2)cc1	inconclusive: 28.2 µM [inhibitor, partial curve]
Cc1ccc(S(=O)(=O)c2cc(O)ccc2O)cc1C	inconclusive: 10 µM [inhibitor, partial curve]
COc1cc(C2C(C(C)=O)=C(O)C(=O)N2CCc2c[nH]c3ccccc23)ccc1O (centres undefined)	inconclusive: 12.6 µM [inhibitor, partial curve]
CC(C)Cn1c(-c2csc3c2CCCC3)n[nH]c1=S	inconclusive: 39.5 µM [inhibitor, single point]
COC(=O)C1=C(C)N(CC2CC2)C(=NCc2cccc(Cl)c2)N[C@H]1c1ccccc1	inconclusive: 50.1 µM [inhibitor, single point]
CCC(C)NC(=O)Cn1c(=O)n(CCCC(=O)NCc2ccc(C)cc2)c(=O)c2ccccc21 (centres undefined)	inactive
CC1(C)Cc2c(c(-c3ccccc3)[nH]c(=O)c2C#N)CS1	inactive
Cn1c(-c2cccc(Br)c2)cnc1NCc1cccnc1	inconclusive: 28.2 µM [inhibitor, single point]
Cc1cc(Nc2ccccc2)n(-c2cccc(Cl)c2)n1	inconclusive: 24.9 µM [inhibitor, partial curve]
O=C(Nc1ccc(N2CCOCC2)c(Cl)c1)c1cc2ccccc2o1	inactive
COc1cccc(C(=O)CC(=O)C(=O)Nc2cc(Cl)c(OC)cc2OC)c1	inconclusive: 39.8 µM [inhibitor, single point]
CC(=O)/C(=N/Nc1ccc(Br)cc1)N1CCCc2ccccc21	inconclusive: 15.8 µM [inhibitor, partial curve]
CCNC(=S)NNC(=O)c1cccnc1	inconclusive: 50.1 µM [inhibitor, single point]
COc1ccc(CNc2cccc3[nH]c(C(F)(F)F)nc23)cc1	inconclusive: 11.2 µM [inhibitor, full curve, poor fit]
O=C(CCCCCN1C(=O)c2cccc3cccc(c23)C1=O)NCCO	inconclusive: 31.4 µM [inhibitor, single point]
